From publication PMC9911399, “Two distinct binding modes provide the RNA-binding protein RbFox with extraordinary sequence specificity”
Numbering of substitutions follows the chain as printed; changes in the protein carry UniProt numbers. This is one part of the list.

T1: RBFOX1 RRM (Homo sapiens, UniProt Q9NWB1 109-208)
T1 sequence: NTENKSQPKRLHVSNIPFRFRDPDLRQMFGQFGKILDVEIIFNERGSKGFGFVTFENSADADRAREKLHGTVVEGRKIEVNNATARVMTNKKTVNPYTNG

B1: CUACGCU (DNA:RNA)
RNA: GGGAGACCGGAAUUCAGAUUGUCCCUACGCUUUAAAUCCCGUCGUAGCCACCA
DNA 1: CAATCTGAATTCCGGTCTCCC
DNA 2: TGGTGGCTACGACGGGATT
B2: CGCCGCC (DNA:RNA)
RNA: B1 RNA with U26G, A27C, U31C
DNA 1: CAATCTGAATTCCGGTCTCCC
DNA 2: TGGTGGCTACGACGGGATT
B3: AGAAACU (DNA:RNA)
RNA: B1 RNA with C25A, U26G, C28A, G29A
DNA 1: CAATCTGAATTCCGGTCTCCC
DNA 2: TGGTGGCTACGACGGGATT
B4: GCGUUCG (DNA:RNA)
RNA: B1 RNA with C25G, U26C, A27G, C28U, G29U, U31G
DNA 1: CAATCTGAATTCCGGTCTCCC
DNA 2: TGGTGGCTACGACGGGATT
B5: GUAGGAG (DNA:RNA)
RNA: B1 RNA with C25G, C28G, C30A, U31G
DNA 1: CAATCTGAATTCCGGTCTCCC
DNA 2: TGGTGGCTACGACGGGATT
B6: AAUAUCU (DNA:RNA)
RNA: B1 RNA with C25A, U26A, A27U, C28A, G29U
DNA 1: CAATCTGAATTCCGGTCTCCC
DNA 2: TGGTGGCTACGACGGGATT
B7: GAGCCCC (DNA:RNA)
RNA: B1 RNA with C25G, U26A, A27G, G29C, U31C
DNA 1: CAATCTGAATTCCGGTCTCCC
DNA 2: TGGTGGCTACGACGGGATT
B8: CUUACAG (DNA:RNA)
RNA: B1 RNA with A27U, C28A, G29C, C30A, U31G
DNA 1: CAATCTGAATTCCGGTCTCCC
DNA 2: TGGTGGCTACGACGGGATT
B9: UAAGGCA (DNA:RNA)
RNA: B1 RNA with C25U, U26A, C28G, U31A
DNA 1: CAATCTGAATTCCGGTCTCCC
DNA 2: TGGTGGCTACGACGGGATT
B10: CUAUCUU (DNA:RNA)
RNA: B1 RNA with C28U, G29C, C30U
DNA 1: CAATCTGAATTCCGGTCTCCC
DNA 2: TGGTGGCTACGACGGGATT
B11: CCUAUGC (DNA:RNA)
RNA: B1 RNA with U26C, A27U, C28A, G29U, C30G, U31C
DNA 1: CAATCTGAATTCCGGTCTCCC
DNA 2: TGGTGGCTACGACGGGATT
B12: AACCACC (DNA:RNA)
RNA: B1 RNA with C25A, U26A, A27C, G29A, U31C
DNA 1: CAATCTGAATTCCGGTCTCCC
DNA 2: TGGTGGCTACGACGGGATT
B13: CCGCGGA (DNA:RNA)
RNA: B1 RNA with U26C, A27G, C30G, U31A
DNA 1: CAATCTGAATTCCGGTCTCCC
DNA 2: TGGTGGCTACGACGGGATT
B14: UAUGCUG (DNA:RNA)
RNA: GGGAGACCGGAAUUCAGAUUGUCCUAUGCUGUUAAAUCCCGUCGUAGCCACCA
DNA 1: CAATCTGAATTCCGGTCTCCC
DNA 2: TGGTGGCTACGACGGGATT
B15: GCCGCAA (DNA:RNA)
RNA: B14 RNA with U25G, A26C, U27C, U30A, G31A
DNA 1: CAATCTGAATTCCGGTCTCCC
DNA 2: TGGTGGCTACGACGGGATT
B16: UACAUAC (DNA:RNA)
RNA: B14 RNA with U27C, G28A, C29U, U30A, G31C
DNA 1: CAATCTGAATTCCGGTCTCCC
DNA 2: TGGTGGCTACGACGGGATT
B17: AUAUACG (DNA:RNA)
RNA: B1 RNA with C25A, C28U, G29A, U31G
DNA 1: CAATCTGAATTCCGGTCTCCC
DNA 2: TGGTGGCTACGACGGGATT
B18: CUAUAGC (DNA:RNA)
RNA: B1 RNA with C28U, G29A, C30G, U31C
DNA 1: CAATCTGAATTCCGGTCTCCC
DNA 2: TGGTGGCTACGACGGGATT
B19: AAGGAGG (DNA:RNA)
RNA: B14 RNA with U25A, U27G, C29A, U30G
DNA 1: CAATCTGAATTCCGGTCTCCC
DNA 2: TGGTGGCTACGACGGGATT
B20: UUGCGGA (DNA:RNA)
RNA: B1 RNA with C25U, A27G, C30G, U31A
DNA 1: CAATCTGAATTCCGGTCTCCC
DNA 2: TGGTGGCTACGACGGGATT
B21: ACUUCCA (DNA:RNA)
RNA: B14 RNA with U25A, A26C, G28U, U30C, G31A
DNA 1: CAATCTGAATTCCGGTCTCCC
DNA 2: TGGTGGCTACGACGGGATT
B22: AUCCGCG (DNA:RNA)
RNA: B1 RNA with C25A, A27C, U31G
DNA 1: CAATCTGAATTCCGGTCTCCC
DNA 2: TGGTGGCTACGACGGGATT
B23: AUAUGGC (DNA:RNA)
RNA: B1 RNA with C25A, C28U, C30G, U31C
DNA 1: CAATCTGAATTCCGGTCTCCC
DNA 2: TGGTGGCTACGACGGGATT
B24: CAUGGUC (DNA:RNA)
RNA: B14 RNA with U25C, C29G, G31C
DNA 1: CAATCTGAATTCCGGTCTCCC
DNA 2: TGGTGGCTACGACGGGATT
B25: ACGAUUA (DNA:RNA)
RNA: B14 RNA with U25A, A26C, U27G, G28A, C29U, G31A
DNA 1: CAATCTGAATTCCGGTCTCCC
DNA 2: TGGTGGCTACGACGGGATT
B26: AUGUUAG (DNA:RNA)
RNA: B1 RNA with C25A, A27G, C28U, G29U, C30A, U31G
DNA 1: CAATCTGAATTCCGGTCTCCC
DNA 2: TGGTGGCTACGACGGGATT
B27: GAUUAAC (DNA:RNA)
RNA: B14 RNA with U25G, G28U, C29A, U30A, G31C
DNA 1: CAATCTGAATTCCGGTCTCCC
DNA 2: TGGTGGCTACGACGGGATT
B28: UCCAACU (DNA:RNA)
RNA: B1 RNA with C25U, U26C, A27C, C28A, G29A
DNA 1: CAATCTGAATTCCGGTCTCCC
DNA 2: TGGTGGCTACGACGGGATT
B29: GAAUCGC (DNA:RNA)
RNA: B14 RNA with U25G, U27A, G28U, U30G, G31C
DNA 1: CAATCTGAATTCCGGTCTCCC
DNA 2: TGGTGGCTACGACGGGATT
B30: CGCCUCU (DNA:RNA)
RNA: B1 RNA with U26G, A27C, G29U
DNA 1: CAATCTGAATTCCGGTCTCCC
DNA 2: TGGTGGCTACGACGGGATT
B31: GAGCAAC (DNA:RNA)
RNA: B1 RNA with C25G, U26A, A27G, G29A, C30A, U31C
DNA 1: CAATCTGAATTCCGGTCTCCC
DNA 2: TGGTGGCTACGACGGGATT

The binders below were run against T1, RBFOX1 RRM (assay: EMSA; HiTS-Eq, 1 nM pool, 10 min; buffer printed only for the single-RNA assays: 10 mM Tris pH 7.5, 150 mM NaCl, 3.4 mM EDTA, 0.001% NP-40, 30 C). Conditions: tags: His6 N-terminal (pET28a); label: 5' 32P.
Procedure, shortened: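 A pool of RNA with 7 randomized nucleotides, 5′-radiolabelled and with DNA-annealed flanks, was equilibrated at 1 nM for 10 min in 50 µL with purified RbFox RRM, wild type or mutant, across increasing protein concentrations. Free RNA was separated by 8% native PAGE, excised, reverse-transcribed, barcoded by PCR and sequenced. Relative association constants were obtained from read-count changes of each RNA species versus the control reaction and normalised to the cognate motif.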

Binder	binding signal
B1	0.00553 KA relative to UGCAUGU
B2	0.00919 KA relative to UGCAUGU
B3	0.00376 KA relative to UGCAUGU
B4	0.0164 KA relative to UGCAUGU
B5	0.00547 KA relative to UGCAUGU
B6	0.00131 KA relative to UGCAUGU
B7	0.00177 KA relative to UGCAUGU
B8	0.00477 KA relative to UGCAUGU
B9	0.0147 KA relative to UGCAUGU
B10	0.00729 KA relative to UGCAUGU
B11	0.00596 KA relative to UGCAUGU
B12	0.0024 KA relative to UGCAUGU
B13	0.00965 KA relative to UGCAUGU
B14	0.0191 KA relative to UGCAUGU
B15	0.014 KA relative to UGCAUGU
B16	0.00108 KA relative to UGCAUGU

Binder	binding signal
B17	0.00215 KA relative to UGCAUGU
B18	0.00226 KA relative to UGCAUGU
B19	0.00964 KA relative to UGCAUGU
B20	0.0101 KA relative to UGCAUGU
B21	0.00106 KA relative to UGCAUGU
B22	0.00266 KA relative to UGCAUGU
B23	0.00904 KA relative to UGCAUGU
B24	0.0144 KA relative to UGCAUGU
B25	0.00337 KA relative to UGCAUGU
B26	0.0112 KA relative to UGCAUGU
B27	0.00739 KA relative to UGCAUGU
B28	0.00165 KA relative to UGCAUGU
B29	0.011 KA relative to UGCAUGU
B30	0.00986 KA relative to UGCAUGU
B31	0.00999 KA relative to UGCAUGU
